Target: T1, mB7-1 mIgG2a (mouse, UniProt Q00609 38-246)
T1 construct: mouse B7-1 (CD80); also called mB7-1 Ig-fusion; B7-1 Fc; source: small-scale purified recombinant protein
T1 sequence (looked up): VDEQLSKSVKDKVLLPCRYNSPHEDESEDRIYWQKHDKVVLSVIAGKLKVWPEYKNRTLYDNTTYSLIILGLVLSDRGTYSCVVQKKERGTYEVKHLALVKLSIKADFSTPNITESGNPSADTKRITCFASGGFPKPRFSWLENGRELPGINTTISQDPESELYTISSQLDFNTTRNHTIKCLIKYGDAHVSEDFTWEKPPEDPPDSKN
Experiment: bead-based flow cytometry competition; protein A beads saturated with mB7-1 mIgG2a; 20 nM mPD-L1 hIgG1 or mCD28 hIgG1 with increasing mIgG2a-fused competitor; anti-human Alexa 488
Settings: both partners purified

- binding result: binds
B1: mCTLA-4 mIgG2a (Fc fusion)
chain: not shown
notes: mouse CTLA-4; also called recombinant mCTLA-4 mIgG2a

— paper PMC7272049 (PLoS ONE, 2020)
